Test results: patent US20220267438A1 (Janssen / Centocor, published 2022)

T1: bt-BCMA (biotinylated BCMA, Octet) (UniProt Q02223 1-54, limits assumed, biotinylated (site not given))
T1 construct: Also used for the row 'BCMA' of the Octet serum interference test of BGCB463, where the reagent is not described; also called BCMA (Octet serum interference)
T1 sequence (looked up): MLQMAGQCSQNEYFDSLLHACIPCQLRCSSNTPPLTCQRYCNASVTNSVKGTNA

T2: BCMW37 (recombinant human BCMA antigen) (human, UniProt Q02223 1-54, limits assumed)
T2 construct: also called BCMA BCMW37 chain; human BCMA (SPR antigen)
T2 sequence (looked up): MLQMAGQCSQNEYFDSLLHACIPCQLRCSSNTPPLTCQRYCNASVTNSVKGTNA

T3: human BCMA (B cell maturation antigen, TNFRSF17) on cells (human, UniProt Q02223 1-184)
T3 construct: whole, on cells; Target on H929 or MM.1R GPRC5D knockout cells, K562 cells expressing human BCMA, HEK293 cells of the cell microarray, and BCMA-only lymphoma lines; also called CD269; surface BCMA
T3 sequence (looked up): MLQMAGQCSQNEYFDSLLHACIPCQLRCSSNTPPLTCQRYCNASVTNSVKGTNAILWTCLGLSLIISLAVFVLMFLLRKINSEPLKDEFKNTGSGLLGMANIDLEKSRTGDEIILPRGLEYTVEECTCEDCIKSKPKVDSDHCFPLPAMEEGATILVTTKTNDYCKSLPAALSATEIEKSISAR

B1: BGCB491 (other)
heavy: QVQLQQSGPRLVRPSQTLSLTCAISGDSVFNNNAAWSWIRQSPSRGLEWLGRTYYRSKWLYDYAVSVKSRITVNPDTSRNQFTLQLNSVTPEDTALYYCARGYSSSFDYWGQGTLVTVSSASTKGPSVFPLAPSSKSTSGGTAALGCLVKDYFPEPVTVSWNSGALTSGVHTFPAVLQSSGLYSLSSVVTVPSSSLGTQTYICNVNHKPSNTKVDKKVEPKSCDKTHTCPPCPAPEAAGGPSVFLFPPKPKDTLMISRTPEVTCVVVSVSHEDPEVKFNWYVDGVEVHNAKTKPREEQYNSTYRVVSVLTVLHQDWLNGKEYKCKVSNKALPAPIEKTISKAKGQPREPQVYTLPPSREEMTKNQVSLSCAVKGFYPSDIAVEWESNGQPENNYKTTPPVLDSDGSFFLVSKLTVDKSRWQQGNVFSCSVMHEALHNRFTQKSLSLSPGKGGGGSGGGGSGGGGSGGGGS[letters of about 100 residues not shown]QFPHTFGQGTKLEIKGGSEGKSSGSGSESKSTGGSQVTLKESGPVLVKPTETLTLTCTVSGFSLTNIRMSVSWIRQPPGKALEWLAHIFSNDEKSYSTSLKSRLTISRDTSKSQVVLTLTNVDPVDTATYYCARMRLPYGMDVWGQGTTVTVSS
light: QSALTQPASVSGSPGQSITISCTGTSSNIGTYKFVSWYQQHPDKAPKVLLYEVSKRPSGVSSRFSGSKSGNTASLTISGLQAEDQADYHCVSYAGSGTLLFGGGTKLTVLGQPKAAPSVTLFPPSSEELQANKATLVCLISDFYPGAVTVAWKADSSPVKAGVETTTPSKQSNNKYAASSYLSLTPEQWKSHRSYSCQVTHEGSTVEKTVAPTECS
chain: EIVLTQSPGTLSLSPGERATLSCRASQSISSSFLTWYQQKPGQAPRLLIYGASSRATGIPDRFSGGGSGTDFTLTISRLEPEDFAVYYCQHYGSSPMYTFGQGTKLEIKGGSEGKSSGSGSESKSTGGS[letters of about 100 residues not shown]DEGYSSGHYYGMDVWGQGTTVTVSSEPKSSDKTHTCPPCPAPEAAGGPSVFLFPPKPKDTLMISRTPEVTCVVVSVSHEDPEVKFNWYVDGVEVHNAKTKPREEQYNSTYRVVSVLTVLHQDWLNGKEYKCKVSNKALPAPIEKTISKAKGQPREPQVYTLPPSREEMTKNQVSLWCLVKGFYPSDIAVEWESNGQPENNYKTTPPVLDSDGSFFLYSKLTVDKSRWQQGNVFSCSVMHEALHNHYTQKSLSLSPGK
notes: Trispecific IgG1 antibody (L234A, L235A, D265S); Heavy chain 1 = anti-CD3 (CD3B376) Fab heavy chain, hole and RF mutations, with C-terminal anti-GPRC5D scFv (GC5B680); Heavy chain 2 = anti-BCMA scFv (BCMB519) - Fc knob; also called JNJ-79635322; BCMA×GPRC5D×CD3 trispecific mAb
B2: BGCB463 (other)
heavy: QVQLQQSGPRLVRPSQTLSLTCAISGDSVFNNNAAWSWIRQSPSRGLEWLGRTYYRSKWLYDYAVSVKSRITVNPDTSRNQFTLQLNSVTPEDTALYYCARGYSSSFDYWGQGTLVTVSSASTKGPSVFPLAPSSKSTSGGTAALGCLVKDYFPEPVTVSWNSGALTSGVHTFPAVLQSSGLYSLSSVVTVPSSSLGTQTYICNVNHKPSNTKVDKKVEPKSCDKTHTCPPCPAPEAAGGPSVFLFPPKPKDTLMISRTPEVTCVVVSVSHEDPEVKFNWYVDGVEVHNAKTKPREEQYNSTYRVVSVLTVLHQDWLNGKEYKCKVSNKALPAPIEKTISKAKGQPREPQVYTLPPSREEMTKNQVSLSCAVKGFYPSDIAVEWESNGQPENNYKTTPPVLDSDGSFFLVSKLTVDKSRWQQGNVFSCSVMHEALHNRFTQKSLSLSPGK
light: QSALTQPASVSGSPGQSITISCTGTSSNIGTYKFVSWYQQHPDKAPKVLLYEVSKRPSGVSSRFSGSKSGNTASLTISGLQAEDQADYHCVSYAGSGTLLFGGGTKLTVLGQPKAAPSVTLFPPSSEELQANKATLVCLISDFYPGAVTVAWKADSSPVKAGVETTTPSKQSNNKYAASSYLSLTPEQWKSHRSYSCQVTHEGSTVEKTVAPTECS
chain: [letters of about 100 residues not shown]QFPHTFGQGTKLEIKGGSEGKSSGSGSESKSTGGSQVTLKESGPVLVKPTETLTLTCTVSGFSLTNIRMSVSWIRQPPGKALEWLAHIFSNDEKSYSTSLKSRLTISRDTSKSQVVLTLTNVDPVDTATYYCARMRLPYGMDVWGQGTTVTVSSEPKSSDKTHTCPPCPAPEAAGGPSVFLFPPKPKDTLMISRTPEVTCVVVSVSHEDPEVKFNWYVDGVEVHNAKTKPREEQYNSTYRVVSVLTVLHQDWLNGKEYKCKVSNKALPAPIEKTISKAKGQPREPQVYTLPPSREEMTKNQVSLWCLVKGFYPSDIAVEWESNGQPENNYKTTPPVLDSDGSFFLYSKLTVDKSRWQQGNVFSCSVMHEALHNHYTQKSLSLSPGKGGSEGKSSGSGSESKSTGGSEIVLTQSPGTLSLSPGERATLSCRASQSISSSFLTWYQQKPGQAPRLLIYGASSRATGIPDRFSGGGSGTDFTLTISRLEPEDFAVYYCQHYGSSPMYTFGQGTKLEIKGGSEGKSSGSGSESKSTGGS[letters of about 100 residues not shown]DEGYSSGHYYGMDVWGQGTTVTVSS
notes: Trispecific IgG1 antibody (L234A, L235A, D265S); Heavy chain 1 = anti-CD3 (CD3B376) Fab heavy chain with hole and RF mutations; also called BGCB463.003; BGCB463.004

Key:
[1] = biological target: T4, human CD3 (CD3ε of the TCR/CD3 complex) on primary human pan T cells (human, UniProt P07766); test: flow cytometry, T cells; fixed point extrapolation because curves were unsaturated at 2 µM
T4 construct: whole, on cells; On T cells CD3ε stands in the whole TCR/CD3 complex
T4 sequence (P07766 23-207, one chain of several): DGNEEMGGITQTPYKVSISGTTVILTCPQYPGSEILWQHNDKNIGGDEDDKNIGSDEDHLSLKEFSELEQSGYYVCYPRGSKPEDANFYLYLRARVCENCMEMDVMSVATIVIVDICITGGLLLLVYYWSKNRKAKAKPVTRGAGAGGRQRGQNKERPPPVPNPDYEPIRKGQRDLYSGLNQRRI

[2] = biological target: T1, bt-BCMA (biotinylated BCMA, Octet); test: Octet, association rate to bt-BCMA in buffer against 50% human serum
[3] = biological target: T2, BCMW37 (recombinant human BCMA antigen); test: SPR, BCMA binding after physiological stress
[4] = biological target: T2, BCMW37 (recombinant human BCMA antigen); test: SPR, BCMA binding after pH 3.5 stress
[5] = biological target: T2, BCMW37 (recombinant human BCMA antigen); test: SPR; antigen BCMW37
[6] = biological target: T4, human CD3 (CD3ε of the TCR/CD3 complex) …; test: flow cytometry, human pan T cells, Donor 3, 1 h 37C; Run 4
Protocol: (§1) For binding of BGCB463 to human and cynomolgus Pan T cells, three human donors (Hemacare) were selected, quickly thawed, resuspended, and aliquoted into a 96-well plate at 1×10⁶ cells/mL. Cells were then washed, Fc blocked if necessary (Innovex), and stained with viability dye (Invitrogen). BGCB463 and its corresponding isotype (B23B251) were diluted in complete media to an initial concentration of 2 μM and 1:3 serial dilutions in duplicate were performed for a dose-response curve. The cells were incubated with molecules at 4° C. or 37° C. for 1 hour. When necessary, incubation with 90% human serum (Sigma) was also performed as described above.
(§2) First, FACS-based binding for GPRC5D and BCMA binding arms of the trispecific molecule was determined by measuring the effective concentration (EC) range from a dose-response curve using a 4-parameter fit at 37° C. for 1 hr. This was assessed using an H929 suite of cells (WT, GPRC5D-KO, BCMA-KO, and GPRC5D/BCMA KO), and a similar MM.1R suite. Cell based EC₅₀ is approximately 13 nM for WT H929 (FIGS. 2A-2D, Table 7) and 2.4 nM for WT MM.1R (FIGS. 3A-3D, Table 8). […] Next, cell-based EC₅₀ was determined for the CD3-binding Fab arm using purified Pan T cells from three random donors. […] Next, dose responsive binding was assessed at 4° C. to remove any potential biological effects. […]

[7] = biological target: T4, human CD3 (CD3ε of the TCR/CD3 complex) …; test: flow cytometry on Pan T cells, donor D326589, 1 hr at 37 C, AF647 secondary detection
Protocol: as §1, §2

[8] = biological target: T3, human BCMA (B cell maturation antigen, …); test: flow cytometry, H929 GPRC5D KO cells, 1 h 37C; average of runs
Protocol: First, FACS-based binding for GPRC5D and BCMA binding arms of the trispecific molecule was determined by measuring the effective concentration (EC) range from a dose-response curve using a 4-parameter fit at 37° C. for 1 hr. This was assessed using an H929 suite of cells (WT, GPRC5D-KO, BCMA-KO, and GPRC5D/BCMA KO), and a similar MM.1R suite. Cell based EC₅₀ is approximately 13 nM for WT H929 (FIGS. 2A-2D, Table 7) and 2.4 nM for WT MM.1R (FIGS. 3A-3D, Table 8). A clear avidity affect is observed as EC₅₀ and Bmax are both reduced in GPRC5D-KO and BCMA-KO lines which test monovalent binding of target binding arms (Table 7). Next, cell-based EC₅₀ was determined for the CD3-binding Fab arm using purified Pan T cells from three random donors. […] Next, dose responsive binding was assessed at 4° C. to remove any potential biological effects. As shown in FIGS. 5A-5C, binding is stronger (50-100 nM) at 4° C., compared to 37° C., which may indicate internalization. Additionally, two expression lots of BGCB463 (BGCB463.003 from transient transfection and BGCB463.004 from a stable transfection pool), were directly compared with binding to H929, MM.1R, and Pan T cells and no differences were noted (FIGS. 6A-6C).

[9] = biological target: T4, human CD3 (CD3ε of the TCR/CD3 complex) …; test: flow cytometry, human pan T cells, Donor 2, 1 h 37C; Run 3
Protocol: as §1, §2

[10] = biological target: T3, human BCMA (B cell maturation antigen, …); test: flow cytometry on K562 cells expressing human BCMA, 1 hr 37 C, average of Runs 1 and 2 (EC50 AVE)
Protocol: FIGS. 9A-E. BGCB463 (circles) or negative control B23B251 (triangles) were all incubated with K562 cells expressing human GPRC5D (FIG. 9A), human BCMA (FIG. 9B), cynomolgus GPRC5D (FIG. 9C) or cynomolgus BCMA (FIG. 9D) for 1 hr at 37° C. at a starting concentration of 2 μM. After secondary detection with AF647-anti-human IgG, the MFI signal was analyzed to generate an EC₅₀ and EC₉₀ (FIG. 9E). Data are representative of two independent experiments.
The GPRC5D (i.e., GC5B680) and BCMA binding arms were assessed for cross-reactivity to cynomolgus monkey as part of the BGCB463 molecule, which uses the identical binding arms as BGCB491. Cross reactivity to cynomolgus monkeys was profiled for both target-binding scFv arms using FACS-based cell binding at 37° C. for 1 hour with K562 stably expressing human or cynomolgus monkey GPRC5D or BCMA. The cell-based EC₅₀ value for the GC5B680 scFv arm was approximately 30 nM against human GPRC5D-expressing cells and about 10-fold weaker (approximately 400 nM) on cynomolgus monkey GPRC5D-expressing cells.

[11] = biological target: T5, human GPRC5D (G-protein coupled receptor family C group 5 member D) on cells (human, UniProt Q9NZD1 1-345); test: flow cytometry, MM.1R BCMA KO cells, 1 h 37C; Run 2
T5 construct: Target on H929 or MM.1R BCMA knockout cells, K562 cells expressing human GPRC5D and HEK293 cells of the cell microarray
T5 sequence (Q9NZD1 whole entry): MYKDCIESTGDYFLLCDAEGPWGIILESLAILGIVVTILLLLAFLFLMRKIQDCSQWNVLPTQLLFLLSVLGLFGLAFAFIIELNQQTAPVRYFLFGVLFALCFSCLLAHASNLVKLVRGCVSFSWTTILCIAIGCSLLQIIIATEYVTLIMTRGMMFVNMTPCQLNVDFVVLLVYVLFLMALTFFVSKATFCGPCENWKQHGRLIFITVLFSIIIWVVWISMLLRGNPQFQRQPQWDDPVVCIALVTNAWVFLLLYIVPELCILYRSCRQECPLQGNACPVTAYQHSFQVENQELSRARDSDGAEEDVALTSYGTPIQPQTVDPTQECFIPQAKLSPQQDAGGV

Binder | EC50 [1] | ka buffer/ka serum [2] | Kd [3] | Kd [4] | Kd [5] | EC50 [6] | EC50 (read off the curve) [7] | EC50 [8] | EC50 [9] | EC50 [10] | EC50 [11]
B1 | 3400 nM | < 2 | 0.143 nM | 0.175 nM | – | – | – | – | – | – | –
B2 | – | – | – | – | 0.84 nM | 255 nM | ~100 nM | 212 nM | 262 nM | 147 nM | 16.6 nM
